# Laboratory results as given in PMC6212790.
# Some of the results follow. At the low end of the ranking the order means little.
# Target: T1, GST-Rok-C97-191 (UniProt O34857)
# T1 sequence: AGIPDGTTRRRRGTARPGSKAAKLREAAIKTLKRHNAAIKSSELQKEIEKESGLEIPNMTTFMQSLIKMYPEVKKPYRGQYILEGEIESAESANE
# Assay: protein binding microarray;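 also: rank score from −0.5 (least bound) to 0.5 (best bound)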
# Conditions: Rok is a gene silencer of Bacillus subtilis; high values mean tight binding; most listed sequences are background and not binding sites; double strand, one strand shown
row,Sequence,binding signal [E-score]
1,AGCGTACT,0.0377
2,CTTAGACC,-0.194
3,AAAGAGCA,-0.205
4,CTGTGTAA,0.0581
5,CACGCTCA,-0.0978
6,CCGGCTAA,-0.0153
7,TGGGCGAA,-0.167
8,ACAAATGG,0.221
9,CCTCGCCC,-0.265
10,AATATCTG,0.2
11,GCAGCTGA,-0.278
12,CGCCTCAA,-0.247
13,AGATACGC,0.226
14,AACTCTAG,0.0856
15,AGGTGCAA,0.148
16,CCAGAGTA,-0.111
17,ACTTGGAG,-0.118
18,ATGAGGTG,-0.0787
19,CGATTACC,-0.0915
20,ACACACAT,-0.0778
21,CACTGGAG,-0.288
22,ACGTTAGC,0.00272
23,CTCAGGTC,-0.112
24,CTACCCTC,-0.104
25,GGTGGCAC,-0.248

row,Sequence,binding signal [E-score]
1,GGCAAAAC,0.125
2,GGAAAGGA,-0.0275
3,AAGTTGCC,0.0483
4,GCTGTTGA,-0.124
5,GCGACCGC,-0.241
6,AATAAACC,-0.0483
7,AAAGTTAT,0.262
8,CCCGTCAC,-0.282
9,AGGCTGAC,-0.0608
10,CACCGGTA,0.0827
11,ACGTCGTG,-0.0834
12,GCCCTTAC,-0.0541
13,AGATATCA,0.0773
14,TACTATCA,0.324
15,CCCCGGCG,-0.351
16,AGTCACAT,0.09
17,GACCTTCC,-0.268
18,AAGAACCC,-0.145
19,ACTCGGGC,-0.286
20,CACTAGCG,-0.0571
21,AACTGGGC,-0.254
22,CATCCATG,0.0926
23,GAACAAAC,0.00279
24,GTCTTTGA,-0.222
25,CACTCTTC,-0.178

row,Sequence,binding signal [E-score]
1,GTAATCAC,-0.089
2,CATGATGC,0.0223
3,ATAAGGAT,0.025
4,CGAGAAAG,-0.0869
5,CCTTCATC,-0.0378
6,ACGGAACT,0.144
7,CGCTATCC,0.0357
8,CAACAGAA,-0.135
9,ACCCGACT,0.0113
10,TGCAATAA,-0.0544
11,GTGGGCAA,-0.141
12,CTACATAA,0.203
13,AAGTAGCT,0.289
14,CATGCACC,-0.0412
15,TATTCGCA,0.03
16,CACGCCCC,-0.364
17,CGGACACG,-0.113
18,CAGAGTGG,-0.132
19,GTAACAGA,0.0718
20,CACAATAG,0.191
21,ACATCTCA,0.111
22,AGCCCCGC,-0.286
23,TACTAAAA,0.421
24,AGTGACAT,-0.00825
25,CCATCGAA,-0.174

row,Sequence,binding signal [E-score]
1,AGCTGTGC,-0.0774
2,CTGGTGAC,-0.118
3,CATCTTCA,0.107
4,AGCGAGAA,0.113
5,AAGAGTGT,-0.0454
6,CAGCGCAC,-0.0441
7,GATTTTCA,-0.0515
8,ATTGAGTA,0.068
9,ATTCCTAG,0.154
10,CAGGAAAG,-0.169
11,ACAGCTCA,-0.103
12,ACTCTTGC,0.0107
13,ACTTTAAG,0.0353
14,CTGGCAGA,0.0748
15,CCAGAAGG,-0.248
16,ACTCAAGT,0.0909
17,GTCCGTCA,-0.0531
18,ACCGATTG,-0.0512
19,CGGCCGTC,-0.214
20,AGCGGAAG,0.0494
21,AATACAGA,0.0883
22,GAGTTATA,0.213
23,AGCAACAG,0.0327
24,AGAGCACG,-0.222
25,ATATCTAC,0.377

row,Sequence,binding signal [E-score]
1,TCTAGAGA,0.171
2,AGACGGTG,-0.00614
3,ACAACAAC,0.138
4,GAAAGGCA,-0.103
5,CCTCTAAG,-0.175
6,TAAGAGTA,0.147
7,ACGTCACA,-0.15
8,ACTGTATA,0.322
9,AGAGTAAG,0.2
10,CGACAACA,-0.00368
11,AACATACA,0.343
12,CCGCAACC,-0.197
13,CGGTCATA,0.225
14,AGCCTAAG,-0.058
15,CGACCGTA,-0.0301
16,CTCGATCA,-0.00141
17,AAACGGGC,-0.0672
18,AGATATTG,0.186
19,AGTGAGAA,-0.0314
20,TGCGACCA,-0.082
21,AAAATAGG,0.223
22,ACAGCGCG,-0.0529
23,AAAAACGC,0.0504
24,AAATCGAC,-0.115
25,GGGGGTGA,-0.223

row,Sequence,binding signal [E-score]
1,AGTGGAGC,-0.0527
2,CCAAACAA,-0.0294
3,TTCTAAAA,-0.00613
4,ACTCCGCG,0.0265
5,CTGGCGAC,-0.196
6,CGATCGCA,-0.00386
7,ATTTCTTG,-0.00368
8,ATATCCAC,0.182
9,GGGTAATA,0.272
10,AGCTACTC,0.0569
11,AACAGCAC,-0.0984
12,AATCTGCA,-0.076
13,AGATCGCA,-0.155
14,ACTCCCGG,0.00854
15,ACGCGAGA,-0.0328
16,GTCCATTA,0.0137
17,CAGAGACG,-0.197
18,AAGGTCAC,-0.121
19,TGCAAGCA,-0.0889
20,ATTGCAAG,0.0246
21,TCTTACCA,0.251
22,GGGTAAAC,-0.0929
23,GTCTAAAA,-0.0402
24,ACATAGGG,0.0208
25,GAAGACGA,-0.192

row,Sequence,binding signal [E-score]
1,CACTGCAG,-0.00561
2,AATTACCC,0.185
3,TGTAATAA,0.311
4,GCCATACA,0.153
5,CCATGCAA,-0.0636
6,CAGAAGGG,-0.395
7,AAGGGACA,0.03
8,AAAATGCA,0.153
9,AGGGACTA,-0.297
10,TACACAAA,0.25
11,AAAAATTG,0.123
12,CCTCGTTC,-0.288
13,CGAGTCCA,-0.379
14,ACGATCTG,-0.154
15,GCGAGTCA,-0.0273
16,GAATCCGC,-0.113
17,GAGAATGC,0.0209
18,ATTGTTTG,0.178
19,AGGCTCGA,-0.122
20,GTCCGCCA,-0.292
21,CCGTCAAG,-0.207
22,ATTGTCTG,-0.217
23,TAGGGCAA,0.0571
24,CCCAACCA,0.00843
25,AGCTTCAG,-0.161

row,Sequence,binding signal [E-score]
1,GGGCACTA,-0.131
2,ATCGGGCG,-0.151
3,GATAGTAC,0.184
4,CCCGCAGC,-0.189
5,CACTGGGC,-0.426
6,AAGTAGGT,0.248
7,ACCATTGG,-0.182
8,AGCCCACC,-0.271
9,ACCGAGCC,-0.249
10,AGAACAAG,0.161
11,AAAGCCAA,-0.19
12,AAACTGGC,-0.0457
13,ATGACAAA,0.117
14,AAAGTCGC,-0.0453
15,CCTGCGCA,-0.0436
16,AAATCTTA,0.124
17,ATTGTCAA,-0.133
18,CGCCCATC,-0.189
19,AATGGACC,-0.00673
20,ATGAGGAC,-0.0214
21,GAATGCAA,-0.0262
22,ACTCATCT,-0.0629
23,AGAGCCCA,-0.215
24,AACAGGGG,-0.0794
25,ACGGCCCA,-0.207

row,Sequence,binding signal [E-score]
1,ACGGGTAA,0.0873
2,GGGTAACA,-0.0349
3,ACGGTTAT,0.165
4,CCCCGCAA,-0.255
5,CTGGTACA,0.267
6,ATGCCTCC,-0.303
7,ACGCGCAA,-0.0496
8,TGAGCGAA,0.0328
9,AATGAACA,0.135
10,ATGAGGGC,-0.132
11,CCGGGAGG,-0.276
12,GGACGTTA,-0.0528
13,CTGGCTAC,-0.178
14,AATCGGAC,-0.128
15,CTTTATCC,-0.062
16,ACTGTGAG,0.139
17,AGTTGGTC,-0.205
18,CGCAAAGC,-0.29
19,GTCGAGCA,-0.0924
20,GGCCGAGA,-0.288
21,AAGGATCT,-0.124
22,AGTCCTGC,-0.192
23,ACGGGCAG,-0.281
24,ACGCCGAT,-0.0711
25,GCACAAAC,-0.0175

row,Sequence,binding signal [E-score]
1,CGAAAAAG,-0.0409
2,GACAAAAA,-0.0639
3,AGACAATC,-0.00319
4,CTATTTTC,0.306
5,GATTGGAA,-0.158
6,CTACTTAA,0.387
7,AGCTATCC,0.0879
8,ATGCCGGA,-0.0636
9,ACCCACTC,0.0773
10,AGTACTTG,0.296
11,AGGTTATC,0.265
12,AATCACCA,-0.0157
13,ACAGTACG,0.0386
14,CACCATAC,-0.0719
15,AAGGTTTC,-0.0614
16,TAGGATGA,0.0835
17,GGGAAGAA,-0.0777
18,CAGGCGGC,-0.327
19,GCTTCAGA,-0.332
20,CAGTGTAG,0.215
21,GCACACAC,-0.149
22,ACACAGAT,-0.0308
23,AGAAAGAT,0.227
24,AAATTTCG,0.14
25,AACTATAC,0.253

row,Sequence,binding signal [E-score]
1,CAGGTGAG,-0.0457
2,ATTAGTCG,0.102
3,ACATCATC,-0.0643
4,GACCTAAA,-0.106
5,CGATGGGC,-0.132
6,GTGCACGA,-0.0372
7,GCAAGACA,-0.106
8,ACCTACTG,0.238
9,AGGACCGA,-0.168
10,AACAATAT,0.213
11,GACGGCAA,-0.139
12,GGCTCTAA,0.0743
13,ACCTAGGG,-0.0515
14,ACCCTGAG,-0.185
15,AACCACCC,-0.103
16,AAAGTAGA,0.298
17,CACGTACG,-0.0431
18,GTCTTGAA,-0.321
19,CGTAGCAC,0.0655
20,AGTCTGGG,-7.1e-05
21,CCCATTAA,-0.208
22,CTGCTAAC,0.0377
23,CTAGTCAA,0.13
24,AAAATAGT,0.404
25,CGTGGACA,-0.191

row,Sequence,binding signal [E-score]
1,CATAATAA,0.281
2,GGGACGAC,0.0648
3,CGCAAAAC,0.0693
4,ACAGTTCA,0.0612
5,ACGGTAGA,0.318
6,GATTGTAC,0.365
7,AACGTAGC,-0.0321
8,CTCGCTTC,-0.182
9,AAAACAGT,0.297
10,ACAAAGAT,-0.034
11,CTCGGTAA,-0.0167
12,AGCCCTAT,-0.0404
13,AATCTAAT,0.254
14,ACACACTA,0.211
15,CGTGAATC,0.0549
16,TACTGTCA,0.16
17,ATAATAGC,0.259
18,ACAATACT,0.107
19,ATACTACA,0.388
20,CCCCTGAG,-0.271
21,GCGATACA,0.0374
22,AACCCAGG,-0.149
23,CCATGTTC,0.00686
24,GGAATATA,0.377
25,CTTCAACA,-0.103

row,Sequence,binding signal [E-score]
1,CTAGATGC,0.0124
2,AGGTGCAT,0.0374
3,CTACCTTC,0.0707
4,CTTAAATC,-0.0598
5,AACTGTTG,-0.0852
6,ATACAGAT,0.168
7,GCTATCAA,0.168
8,GCAACAAC,0.0446
9,AACGTGTC,0.0055
10,GGCATCAA,-0.236
11,ATAAGGAG,0.0222
12,ACCCTGCA,-0.0879
13,GACGGAGC,-0.262
14,CATAGCTA,0.304
15,CTTTGAAC,-0.0169
16,CTGTCTCA,-0.118
17,AATGCAGG,0.0503
18,CCTTGTTA,-0.147
19,GCCTGAAA,-0.0289
20,ACGAAGAG,-0.048
21,GGTCACTA,-0.0834
22,AGGTCATG,-0.0161
23,AAACCCTG,-0.212
24,AGTGCCAG,-0.235
25,TCTCAAAA,0.1

row,Sequence,binding signal [E-score]
1,AGATGCCT,-0.203
2,CCTAACCG,-0.379
3,AAGACGGA,-0.0799
4,CGGGCAAG,-0.286
5,AGCAGCTC,-0.148
6,AATGCTCA,-0.15
7,GCCAGACA,-0.257
8,CCGGACTC,-0.122
9,AGCCTTCG,-0.302
10,GTGTGGAA,-0.0936
11,ACATACGG,0.126
12,GGCTCTCA,-0.362
13,CACGCGCC,-0.365
14,TTACGTAA,0.261
15,GACGAATC,-0.0921
16,TATTGCAA,0.175
17,AAAACAAG,0.0357
18,CTATCCCC,-0.133
19,ATGTAACC,-0.106
